Results as given in the supplement of paper PMC3334620.
In all, about 33,000 sequences were measured (“E-score (-0.5 to 0.5)”: median about -0.035, highest 2% from about 0.35 on). This is one part of the list.

target: T1, Pdr3 (UniProt P33200); assay: PBM E-score (8-mer binding enrichment) (E-score (-0.5 to 0.5)); higher = stronger / more preferred TF binding; most listed sequences are background and not binding sites; conditions: protein concentration: 200 nM; construct: GST-full length
T1 sequence: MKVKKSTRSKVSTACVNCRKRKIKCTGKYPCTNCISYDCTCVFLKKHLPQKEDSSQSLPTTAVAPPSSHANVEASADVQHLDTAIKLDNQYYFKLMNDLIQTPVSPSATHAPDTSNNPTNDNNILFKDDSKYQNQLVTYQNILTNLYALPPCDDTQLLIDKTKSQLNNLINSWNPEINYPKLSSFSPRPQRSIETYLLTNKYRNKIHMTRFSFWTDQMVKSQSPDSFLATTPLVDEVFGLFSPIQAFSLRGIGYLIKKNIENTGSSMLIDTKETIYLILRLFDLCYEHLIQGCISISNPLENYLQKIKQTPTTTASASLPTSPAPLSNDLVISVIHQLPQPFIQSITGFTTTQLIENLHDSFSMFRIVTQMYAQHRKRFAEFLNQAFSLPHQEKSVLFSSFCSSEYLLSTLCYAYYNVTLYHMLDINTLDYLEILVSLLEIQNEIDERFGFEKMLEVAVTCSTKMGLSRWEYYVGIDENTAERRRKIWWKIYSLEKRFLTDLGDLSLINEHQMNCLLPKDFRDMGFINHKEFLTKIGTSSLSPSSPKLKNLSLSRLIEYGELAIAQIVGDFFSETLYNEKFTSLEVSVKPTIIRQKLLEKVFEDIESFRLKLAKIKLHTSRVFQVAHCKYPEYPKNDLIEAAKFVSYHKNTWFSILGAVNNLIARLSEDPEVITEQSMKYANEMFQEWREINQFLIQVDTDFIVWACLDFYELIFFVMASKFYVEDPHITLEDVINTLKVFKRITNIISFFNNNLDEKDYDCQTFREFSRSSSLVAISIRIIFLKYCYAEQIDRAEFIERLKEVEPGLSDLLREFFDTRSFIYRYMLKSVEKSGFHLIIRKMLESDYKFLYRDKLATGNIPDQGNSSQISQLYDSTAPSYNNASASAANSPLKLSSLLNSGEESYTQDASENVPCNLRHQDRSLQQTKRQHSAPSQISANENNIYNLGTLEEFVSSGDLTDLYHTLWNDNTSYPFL
Summary of the method: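 Full-length yeast transcription factors or their DNA-binding domains, GST-tagged and expressed with PURExpress, were applied at about 100-200 nM to universal all-10-mer Agilent arrays. These arrays had been made double-stranded by primer extension on fresh or once-stripped slides. Detection used fluorescent anti-GST, normalisation used masliner, and E-scores for ungapped eight-base words pooled with reverse complements came from the Universal PBM Analysis Suite.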

Sequence	PBM E-score
GGCAAGGA	0.0896
CCGGTAAA	0.238
AAGAGAGC	-0.0321
GATTGACA	-0.0696
AGGGTCTG	-0.28
AGTCTAAT	-0.331
CAGACCAG	-0.0503
CCTGTGCA	-0.136
AGACATTC	-0.0597
CCAAAGAA	-0.041
AGAGCGCC	0.0515
AGTACCGA	0.0497
GCCACAAC	0.0112
CCACAGGC	-0.294
AGCCATCG	-0.134
GACTGATC	-0.214
AAGCCCGC	0.213
ACGAGCCA	-0.197
GATTGACC	-0.0167
ATACCTCG	0.00876
CCTATCGC	-0.199
AAGCGGGC	-0.0526
AAGTCGCA	0.069
CCATAAGC	-0.156
AGACGGCA	0.202

Sequence	PBM E-score
ATGGCGCC	0.129
AATCGCGA	0.158
CCGATCCG	0.371
TATGTCAA	0.0343
CTGACCTA	-0.226
GGAGGGCC	-0.0809
ACCACACA	-0.00201
ACAGCTGC	-0.168
ATAACCTG	-0.239
ATGATTGA	-0.104
AAATTGTT	-0.0305
CCACGCAC	0.0352
ATATGGTC	0.00074
ATCTGCCA	-0.133
CTCGCTTA	0.00027
CCCCGCCG	0.226
GAGTTGTA	-0.0708
CATTAACA	0.00613
CGACTGAG	-0.137
AGTGGAAT	-0.0242
ATAACTTA	-0.0936
ACCGCTGC	-0.0522
CATTGTAA	-0.0545
CATCATGA	-0.0434
ACGACTCC	-0.109

Sequence	PBM E-score
AACCGCAG	-0.0195
CCTAACGC	-0.0732
CATCAGTA	-0.172
AGCTGAAT	-0.0932
AACCGAGG	-0.031
CGTTCCTC	0.194
CACTGTTA	-0.2
CACCTCAA	-0.0547
ATGACATC	0.0327
CCCTAGGG	-0.262
CTTGCCAA	-0.215
TTCAGGAA	-0.117
AAAGACCA	-0.341
GGAACCTA	0.3
ACTGAATG	0.0997
CGCCTACG	0.0504
TGACCAAA	0.0396
AATAATCT	0.0515
ATTAGGCG	0.00114
ATGAACGA	-0.188
ATTAAACA	-0.184
AATATCTA	-0.0835
GGTGACGA	-0.231
CAGCTCCC	-0.238
GAACCTCC	0.0549

Sequence	PBM E-score
AGTAAAGG	0.0136
AGAGGTGG	-0.183
CACGCGAG	0.0113
GAGCAGAC	-0.194
TGACAACA	-0.117
ACTAGGCC	-0.104
CCGTAAGG	-0.138
GTTAGATA	-0.129
CACATGCC	0.0479
ACTCGCAT	0.00737
CTTGGGGA	-0.143
CGAAAAGC	0.0467
CCATTCGC	-0.137
TGTCGTAA	-0.113
CCCGTGTC	0.244
CAGAGGAA	0.0208
ATTTAGTC	0.129
GCCAACTA	-0.165
ATCGTAAC	0.0598
ACGGTGGG	-0.0386
CGGTACCG	0.362
GGCTTTTA	-0.15
GCTGGTCC	0.104
AATATGTC	-0.0211
CGCGAGGA	0.135

Sequence	PBM E-score
ACTTGTAA	-0.217
AAATAAGC	-0.25
CACGGTCG	-0.0168
TCTAGGCA	-0.152
CTGTCTAA	-0.0185
TCCAAGCA	-0.167
GATTCCGC	0.455
CGCCGACG	0.0962
ACACCCCC	-0.198
GTGGGAAC	-0.0738
GGCGCCAC	0.14
CAGCTTCC	0.202
CATCGATA	0.0725
AGGGATCG	-0.078
CACCTCAG	-0.241
CAAGGCCA	-0.127
CGTGAGGC	0.0391
GGCGGGAA	0.198
ACGACTAT	-0.128
CTCATCCC	0.00209
ACCGCCCT	-0.041
CAGATTGC	-0.0891
TGGATACA	-0.189
AAAGTAAG	-0.176
CATCGGGC	0.0304

Sequence	PBM E-score
ACGACTAA	-0.2
GCCAGCAA	-0.0512
CCCGTTGA	0.0291
GGCGGACC	0.357
CTAAACAC	-0.269
CAGTGAGA	-0.0851
TCCAAACA	-0.132
CGCTTTTC	0.0476
GACAAGAC	0.174
AACGTTGT	-0.0392
CGAAGACG	0.037
CGATGTGA	-0.205
ATACCTGG	-0.113
ATCTTGAA	-0.061
AGGGTACA	-0.166
ACAGGGTC	0.111
CGTCTTAA	-0.252
GTTTATGA	-0.0474
CTCTGGCA	-0.109
CTTTTACC	-0.169
AATCAGCC	-0.0911
TTCTTCAA	-0.00084
TAAGATAA	-0.0608
CTGTTGTC	0.00651
AAAACGGC	0.0837

Sequence	PBM E-score
CGGAACAA	0.476
CGTGGGCC	0.116
AGCAAAAT	0.125
CTGGACGA	-0.212
AGCTTCTC	-0.0837
GGTGGCGA	-0.0736
CACATACC	-0.0506
GAACTTAC	-0.0657
GTCACGAA	0.0345
CGGACAAA	0.333
AGTCGGTC	0.0743
AATGTTAC	-0.0378
CGGTCTTA	-0.108
ATGCAGAA	-0.0736
GCAGTAAA	0.0241
AGCTTAAC	-0.0803
AGTTTTCC	0.303
GCTGGCTA	-0.255
CCAGCGGG	0.147
AAAACACG	-0.00814
ATATGTAG	-0.169
ATGTGCAG	-0.186
CCTAGGGC	-0.104
ATTATTAC	0.00492
CATGAATG	0.0813

Sequence	PBM E-score
ATATCATG	-0.185
CCTTCTAA	-0.316
CGAATACA	0.141
CTATGCTC	-0.215
ATTAGGGA	-0.0882
AAACGCTG	-0.261
AAGGTGTC	0.0566
ACGGTAGT	-0.00668
AATAGGGG	0.0604
CGCAGGAG	-0.0399
GCCCACAC	0.0749
TGCGGCAA	-0.0626
GTAACCAC	-0.301
CATACTTC	-0.117
CTTCCTTC	-0.174
AGAAAGAT	-0.106
TAAATATA	0.107
ACTGGCCT	-0.0349
GCTTGGCA	-0.232
ACGACAAG	-0.133
GACAGTCC	-0.0383
CTTCGAGA	-0.187
GTCAAAAA	-0.163
AAAGTGAC	-0.101
CCTAGTCA	-0.323

Sequence	PBM E-score
ACAGGCGG	0.142
AGGTACGG	0.0614
CAGAGTAG	-0.226
ATGACATG	-0.0403
CGCTGATA	-0.115
ACGGCTGG	0.00647
TAACTGAA	-0.173
ACTTTTCG	-0.00487
TTAGAAAA	-0.164
CTGAGCTA	-0.206
GCAGTGCA	-0.0221
ACCACGGA	0.377
CACTTGTA	-0.226
GTCAGCTA	-0.181
GTATGGCA	-0.0708
CAGTATCA	-0.0897
ATGCCACG	0.0833
CAGTTCAC	-0.081
AGAGGCAC	-0.154
